# In the supplement of paper PMC3334620:
# In all, about 33,000 sequences were measured (“E-score (-0.5 to 0.5)”: median about -0.056, highest 2% from about 0.38 on). The list shows a part of the results.
# Biological target: Stb4 (UniProt P50104)
# Test: PBM E-score (8-mer binding enrichment) (E-score (-0.5 to 0.5)); higher = stronger / more preferred TF binding; most listed sequences are background and not binding sites
# Conditions: protein concentration: 200 nM; construct: GST-DNA-binding domain
# Summary of the method: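 GST-tagged yeast TFs (full-length or DNA-binding domain) were made by PURExpress in vitro transcription/translation and applied at about 100-200 nM to universal all-10-mer Agilent arrays. The arrays were made double-stranded by primer extension, on fresh or once-stripped slides. Bound protein was detected with fluorescent anti-GST, and scans were normalised with masliner. Each ungapped eight-base word, pooled with its reverse complement, received an E-score (modified Wilcoxon-Mann-Whitney statistic) from the Universal PBM Analysis Suite.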
row,Sequence,PBM E-score
1,GAGTCATA,0.0498
2,ATATTTAC,0.0859
3,GGAACGGA,0.34
4,AAAAGTGA,-0.132
5,AGTAACAA,-0.0467
6,CGCCTACA,-0.273
7,CGCCTAGC,-0.0997
8,GCACGCAA,-0.0545
9,GGAATATA,0.269
10,CTACAGAG,-0.0698
11,TATGTAGA,-0.136
12,AGATGAGC,-0.238
13,CACGAGGA,-0.11
14,CCGAGCTA,0.424
15,CATGCAAG,-0.147
16,AATAAGCA,-0.213
17,GAACGAGC,0.0357
18,AGGGTCGC,0.0637
19,CCGGGCTC,0.147
20,ACGCCAAG,-0.162
21,AGTCTTGA,-0.157
22,AACTGGAC,-0.171

row,Sequence,PBM E-score
1,ACTGGGGA,-0.2
2,ATACGCAA,-0.238
3,CGATTCAC,0.0534
4,AAGAAGCG,-0.256
5,AGGACACG,0.223
6,AATTATCA,-0.136
7,CGCTGGAG,-0.175
8,CACGAACG,-0.0559
9,CTAACGTC,-0.0355
10,GAGTGACA,-0.0468
11,GAGGACTA,-0.151
12,ACCGCCTG,-0.115
13,ATCTACCA,-0.135
14,ATGCCTAA,-0.141
15,GCGGGAAC,0.24
16,GATGGTGA,-0.00467
17,CCCACCAC,0.0119
18,GACTGCGA,-0.135
19,AACCTCCA,-0.123
20,TCATTCGA,-0.206
21,TAGATAGA,-0.148
22,AAACCGGG,0.129

row,Sequence,PBM E-score
1,CCAACGCC,-0.0552
2,ATTGCAAC,0.0402
3,CAAGCTGG,-0.241
4,GCTGCTGA,-0.183
5,AGGTGCGA,-0.133
6,AGAAAGAA,-0.0401
7,CTGGAAGA,-0.112
8,ATTTTTCC,0.264
9,AACTGCGA,0.0202
10,AACCCCAG,-0.184
11,AACCCCCG,0.247
12,AAAGAACC,0.0688
13,AAAGGCCT,-0.268
14,GCAGCGTA,-0.154
15,AACTTTCA,-0.0247
16,CTGACCGA,0.107
17,GCTCTCCA,-0.362
18,CTAGTTCA,-0.107
19,AGGGATAG,-0.0761
20,AGATCGGC,0.189
21,CTTTTTGC,0.0383
22,AGATGTAG,-0.065

row,Sequence,PBM E-score
1,TACTGATA,0.137
2,AGTCACAC,-0.192
3,GCGCGTAA,-0.0365
4,ATTTAGAC,-0.0764
5,ACCGAACC,0.336
6,ATGCTAGA,-0.124
7,GGCGTATA,-0.128
8,AAGTTATA,-0.0816
9,ACGGAGAC,0.12
10,GCTAGCGA,-0.056
11,ACAAAGCG,-0.0861
12,GATTAACA,-0.0378
13,ATGGATGG,-0.177
14,CGGCTCGA,0.307
15,ATTACCGG,0.315
16,CATCCTGG,-0.211
17,TCTAGTAA,-0.126
18,ACAGCCGT,0.183
19,CGTAGGAA,-0.117
20,AGTTTCGA,-0.131
21,CCATTGGC,-0.0415
22,ATTAGCAG,-0.0138

row,Sequence,PBM E-score
1,TCGCGCCA,0.0181
2,ATTACTAC,-0.142
3,AGACCTGG,-0.104
4,TCATTAGA,-0.0953
5,ATGCTTTC,0.0626
6,ACGGACCG,0.215
7,GAACTTGA,0.0679
8,AAAAGAAG,-0.135
9,GGTATTTA,0.17
10,CTATAGAA,-0.123
11,GATGATCC,0.206
12,AGGTGGTG,-0.0694
13,CTAACCGC,0.0169
14,CCGGAGAG,0.253
15,ACTCGGGC,0.263
16,GTTGTCGA,-0.105
17,GATGCACA,-0.116
18,ATTTCCCC,0.07
19,AGCACATA,-0.0945
20,ATGATGTA,-0.135
21,ACCCGAGT,0.423
22,ATAAGAAA,-0.0559
